Laboratory results published in PubChem BioAssay AID1030 (National Center for Advancing Translational Sciences (NCATS), 2008).
Screen size: about 220,000 compounds; about 16,000 (7.3%) were called active. The shares of active, inactive and inconclusive entries below differ from those in the screen. Calls come from the whole dose curve; as a rule, active = well fitted inhibition curve with a large enough effect (not every such curve was filed as active); inconclusive = small, poorly fitted or top-dose-only effect, or another doubt; inactive = no such curve, though single readings can be large or run the other way. No potency is given beside an inconclusive call; the fits are too rough.
Potency is the fitted concentration of half-maximal effect; tags give direction and shape of the fitted curve.
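Throughout, for activity, negative = inhibition: plate controls were no enzyme wells and a reference inhibitor.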

What follows are compounds tested against Aldehyde dehydrogenase 1A1 (Homo sapiens) (UniProt P00352) (assay: qHTS Assay for Inhibitors of Aldehyde Dehydrogenase 1 (ALDH1A1)). Details: Purified ALDH1A1, NADH fluorescence, propionaldehyde substrate; series mostly up to 75.3 µM.
Chain of UniProt P00352 (P00352 whole entry, looked up): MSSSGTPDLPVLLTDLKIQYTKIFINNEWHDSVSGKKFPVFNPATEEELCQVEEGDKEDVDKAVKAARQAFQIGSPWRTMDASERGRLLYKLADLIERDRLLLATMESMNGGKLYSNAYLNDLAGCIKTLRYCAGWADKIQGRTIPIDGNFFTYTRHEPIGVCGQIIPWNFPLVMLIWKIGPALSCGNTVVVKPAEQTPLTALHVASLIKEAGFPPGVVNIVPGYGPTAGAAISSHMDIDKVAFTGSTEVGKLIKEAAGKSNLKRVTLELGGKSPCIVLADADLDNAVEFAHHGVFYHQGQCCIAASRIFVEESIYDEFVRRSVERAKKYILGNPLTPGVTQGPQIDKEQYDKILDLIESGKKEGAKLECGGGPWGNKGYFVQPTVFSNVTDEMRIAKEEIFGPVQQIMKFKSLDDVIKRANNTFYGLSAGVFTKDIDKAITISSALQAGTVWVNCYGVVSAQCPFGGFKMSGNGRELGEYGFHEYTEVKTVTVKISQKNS
`COCCSc1nnc(NC(=O)c2ccc3c(c2)OCO3)s1` was tested, and the Potency was inconclusive [inhibitor, single point]. `C/C(N)=C(/C#N)C(=O)CSc1nnc(Nc2c(C)cccc2C)s1` was tested, and the Potency was inconclusive [inhibitor, single point]. With `Cc1nc(N)c(Br)c(C)c1Br` the Potency was “inactive”. `COc1cc(NC(=O)C2CCCCC2)c(OC)cc1NC(=O)c1ccco1` was tested, and the Potency was inconclusive [inhibitor, single point]. For `COc1ccc(/C(N)=N/OC(=O)Cc2cccs2)cc1`, the Potency was “inactive”. With `O=C(Cc1ccccc1)NNC(=O)Nc1cccc(Cl)c1` the Potency was “inactive”. With `COc1ccc(NC(=O)CN2CCN(S(=O)(=O)c3ccc(Cl)cc3)CC2)cc1` the Potency was active: 18.9 µM. In the case of `O=C(CSc1nnc(COc2ccc(Cl)cc2)o1)N1c2ccccc2CCc2ccccc21`, the Potency was active: 22.4 µM. For `CCCC(c1nnnn1CCOC)N(Cc1cc2cc(C)c(C)cc2[nH]c1=O)CC1CCCO1` (stereo unspecified), the Potency was inconclusive [inhibitor, single point]. For `O=C(CC(C(=O)O)c1ccc(Cl)cc1)c1ccccc1` (stereo unspecified), the Potency was “inactive”. `O=C(COC(=O)CNC(=O)c1cccc([N+](=O)[O-])c1)Nc1ccccc1OC(F)F` was tested, and the Potency was inconclusive [inhibitor, single point]. In the case of `CCOC(=O)/C(C#N)=C/c1cc2ccccc2nc1N1CCCCC1`, the Potency was active: 18.9 µM. For `O=C(O)C(=O)/C(=C\c1cccc(Cl)c1)c1ccc2ccccc2n1`, the Potency was inconclusive [inhibitor, partial curve]. For `COc1ccc(-n2c(=O)c(CCc3ccccc3)nc3cnc(N4CCOCC4)nc32)cc1`, the Potency was inconclusive [inhibitor, single point]. For `CC(C)[C@@H](OCc1ccccc1)[C@H](C)/C=N\OC[C@@H](O)[C@@H]1O[C@@H]2OC(C)(C)O[C@@H]2[C@H]1O`, the activity, negative = inhibition was inactive: 1.91% [at 13.5 µM]. With `O=C(Nc1ccc2c(c1)OCO2)C1CCCN1C(=O)OCc1ccccc1` (stereo unspecified) the Potency was inconclusive [inhibitor, partial curve]. For `COc1ccc(-c2csc(NC(=O)c3ccc(OCC(=O)N4CCOCC4)c(OC)c3)n2)cc1OC`, the Potency was inconclusive [inhibitor, single point]. `O=C(/C=C\NCC(=O)c1ccccc1)c1ccc(F)cc1` was tested, and the Potency was active: 20 µM. With `COc1cccc(NC(=O)C2CCCN(S(=O)(=O)c3ccc(-n4cnnn4)cc3)C2)c1` (stereo unspecified) the Potency was inconclusive [inhibitor, single point]. `Cc1cc(C(F)(F)F)nn1CC(=O)NNC(=S)Nc1cccc(Cl)c1` was tested, and the Potency was active: 20 µM. In the case of `CCNc1ncc2nc(-c3ccc(Cl)cc3)c(=O)n(CCC#N)c2n1`, the Potency was inconclusive [inhibitor, partial curve, poor fit]. For `CN1CCN(c2ncc3nc(CCc4ccccc4)c(=O)n(C)c3n2)CC1`, the Potency was inconclusive [inhibitor, partial curve]. For `CC1CCN(C(=S)c2ccccc2O)CC1`, the Potency was inconclusive [inhibitor, partial curve, poor fit]. `CCOC(=O)c1c(NC(=O)C2C3CCC(O3)C2C(=O)O)sc2c1CCC(CC)C2` (stereo unspecified) was tested, and the Potency was “inactive”. With `Cc1cc(C)c(C(N)=O)c(SCC(=O)c2ccc(Cl)cc2)n1` the Potency was “inactive”. With `Cc1nc(C)c(-c2csc(N)n2)s1` the Potency was “inactive”. With `CS(=O)(=O)N(CCc1ccccc1)CC(=O)Nc1ccc2c(c1)OCO2` the Potency was inconclusive [inhibitor, single point]. In the case of `Nc1nc2ccc(S(=O)(=O)N3CCCCC3)cc2s1`, the Potency was active: 6.31 µM. `NC(=O)COC(=O)c1oc2ccccc2c1CSc1ccc(Cl)cc1` was tested, and the Potency was “inactive”. With `O=C(/C(=C/c1ccc(Cl)cc1)c1nc2ccccc2[nH]1)c1cccs1` the Potency was inconclusive [inhibitor, single point]. `CCOc1ccc(NC(=O)/C(=C\c2ccc(OC(C)=O)c(OC)c2)NC(C)=O)cc1` was tested, and the Potency was active: 10 µM. `CCCSC(=S)c1c(C)[nH]n(-c2ccccc2)c1=O` was tested, and the Potency was “inactive”. For `CC(C(=O)OCC(=O)Nc1cccc(S(=O)(=O)N2CCOCC2)c1)N1C(=O)c2ccccc2C1=O` (stereo unspecified), the Potency was active: 25.1 µM. With `Cc1ccc(C(=O)NCCSc2ccccc2)cc1S(=O)(=O)Nc1ccccc1` the Potency was inconclusive [inhibitor, single point]. `COc1cccc(CC(=O)Nc2nc3c(s2)C(=O)CC(C)(C)C3)c1` was tested, and the Potency was active: 1.26 µM. `CCOc1ccc2nc(N3CCOCC3)nc(C)c2c1` was tested, and the Potency was inconclusive [inhibitor, partial curve]. In the case of `COc1ccc(NCC(=O)Nc2ccc(Cl)cc2C)c(OC)c1`, the Potency was active: 4.47 µM. `CC(=O)Nc1ccc(-n2nnnc2SCC(=O)N2CCN(C(=O)c3ccco3)CC2)cc1` was tested, and the Potency was inconclusive [inhibitor, single point]. With `O=c1cc(-c2ccccc2)oc2cc(O)c(O)cc12` the Potency was “inactive”. In the case of `COc1cc(/C=C/C(=O)OCC(=O)NC(=O)NC(C)C)ccc1OCC#N`, the Potency was inconclusive [inhibitor, single point]. With `CCOC(=O)N1CCN(c2nc(SC)nc3sc4c(c23)CC(C)(C)OC4)CC1` the Potency was inconclusive [inhibitor, single point]. In the case of `O=[N+]([O-])c1ccc(NC(=S)N2CCc3ccccc3C2)cc1`, the Potency was inconclusive [inhibitor, single point]. In the case of `O=C(NC(=S)NCc1ccccc1)c1ccc2c(c1)OCO2`, the Potency was inconclusive [inhibitor, single point]. In the case of `Cc1ccc(S(=O)(=O)N2CCC(C(=O)NNS(=O)(=O)c3ccc(Cl)cc3)CC2)cc1`, the Potency was inconclusive [inhibitor, partial curve, poor fit]. With `O=C(NCC12CC3CC(C1)CC(CNC(=O)N1CCCC1)(C3)C2)N1CCCC1` the Potency was inconclusive [inhibitor, single point]. With `O=C(OCC#CCSc1nnc(-c2cccc3ccccc23)o1)c1ccco1` the Potency was inconclusive [inhibitor, partial curve].
